Results published in PubChem BioAssay AID1508623 (National Center for Advancing Translational Sciences (NCATS), 2021).
In all, about 48,000 compounds went through this assay and about 450 (0.94%) were called active. Not shown: some 19% with an inconclusive outcome. Calls follow the shape of the dose curve; as a rule, active = well fitted inhibition curve with a large enough effect; inconclusive = small, poorly fitted or top-dose-only effect; inactive = no such curve, though single readings can be large or run the other way. The list shows a part of the results.

assay: Primary qHTS for Identification of Small Molecule Inhibitors of Huntingtin Promoter Activity; conditions: HEK293 HTT promoter firefly luciferase reporter (activity 0% = vehicle and -100% = no light), 24 h; series mostly up to 57.5 µM; activity change, negative = inhibition: at the top concentration; also: nearly all actives have a fitted effect of over 50% in size
Procedure, shortened: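 Firefly luciferase readout (Dual-Glo, 10 min RT) after 24 h, 37 °C compound exposure (final up to 57.5 uM) of HEK293 reporter cells cultured 24 h beforehand; PTC124 at 50 uM final as control inhibitor; activity scaled vehicle 0%, zero RLU -100%.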

Activity change, negative = inhibition, inactive:
COc1ccc(CCNC(=O)c2nn(-c3ccc(C)cc3)c(=O)c3c2c2ccccc2n3C)cc1OC -7.19%
O=C(CC1N=C2c3ccccc3N=C(SCC(=O)Nc3cccc(C(F)(F)F)c3)N2C1=O)NCc1cccs1 (centres undefined) -21.5%
CCOC(=O)CCn1nc(-c2ccc(C)cc2)c2ccccc2c1=O -32.3%
Cc1ccc(C)c(Cn2c(=O)n(Cc3ccccc3)c(=O)c3c(C)c(C)sc32)c1 2.23%
CCc1ccccc1NC(=O)Nc1nnc(N2CCCC2)s1 -13.4%
CCc1ccc(CN(Cc2ccco2)C(=O)c2ccccc2Cl)cc1 -4.73%
COc1cc(NC(=O)Cn2c(=O)n(Cc3ccccc3OC)c(=O)c3cccnc32)cc(OC)c1 -26.7%
Cc1ccc(C(=O)COC(=O)c2cc(-c3ccccc3)nc3ccccc23)cc1C 32.7%
Cc1ccc(C)c(N2CCN(S(=O)(=O)c3ccc4oc(=O)c5ncn(C)c5c4c3)CC2)c1 -11.8%
COc1ccc(NC(=O)CCN2CCN(c3cccc(Cl)c3)CC2)cc1 -8.25%
COc1cccc(CCNC(=O)c2c(O)nc3c(C)cccn3c2=O)c1 -2.07%
CC(Sc1nnc2ccc3ccccc3n12)C(=O)Nc1ccc(Cl)cc1 (centres undefined) -0.462%
Cc1nc2ccn(Cc3ccccc3)c(=O)c2cc1C(=O)N1CCN(c2ccc(F)cc2)CC1 -18.7%
NCCS(=O)(=O)O
COCCc1nn2c(=O)cc(COC(=O)C(c3ccccc3)c3ccccc3)nc2s1 -9.31%
CCOC(=O)c1cnc2cc(-c3ccc(OCC)cc3)nn2c1-c1ccccc1 -13.3%
Cc1cc(NC(=O)n2ncc3c(C)cccc32)ccc1Br 70.1%
CCCCS(=O)(=O)N[C@@H](Cc1ccc(OCCCCC2CCNCC2)cc1)C(=O)O 4.11%
CCn1cc(C(=O)O)c(=O)c2cnc(N3CCNCC3)nc21 7.16%
COc1ccc(NC(=O)CSc2nccn2Cc2ccc3c(c2)OCO3)cc1 -17.9%
Cc1ccc(-n2c3c(cc(C(=O)Nc4ccccc4C(N)=O)c2=O)C(=O)CC(C)(C)C3)cc1 -20.1%
COc1ccc(C2=Nc3ccccc3NC(c3cccs3)=N2)cc1 -22.2%
Cc1cc(C)c(NC(=O)CSc2ccc(-c3ccccn3)nn2)c(C)c1 4.01%
CN(C)CCNC(=O)CN1C(=O)COc2ccc(S(=O)(=O)N3CCCC3)cc21 -13.1%
CCOc1ccccc1NC(=O)c1c(NC(=O)COc2ccccc2)sc2c1CCCC2 -7.87%
COc1cccc(NC(=O)CCC(=O)N2Cc3ccccc3Oc3ncccc32)c1 -2.8%
Cc1ccc(CNC(=O)CSc2nc3ccsc3c(=O)n2Cc2ccccc2F)cc1 -1%
CC(C)OC(=O)c1cccc(NC(=O)Cn2nnc3sc4c(c3c2=O)CCCC4)c1 0%
Cc1ccc(S(=O)(=O)N2CCN(C(=O)c3cc(-c4ccc(Br)cc4)n[nH]3)CC2)c(C)c1 -26.7%
Cc1c(Cl)cccc1-n1ncc(C(=O)N2CCN(c3ncccn3)CC2)c1C1CCN(C(=O)OC(C)(C)C)CC1 -23.7%
Cc1ccc(NC(=O)C(Cc2ccccc2)NS(=O)(=O)c2ccc3c(c2)c(=O)n(C)c(=O)n3C)c(C)c1 (centres undefined) -4.8%
CCOc1ccccc1Nc1nc2ccccc2c2nncn12 -6.94%
COc1cccc2c1cc1c(=O)n(CC(=O)N3CCN(c4cccc(C)c4C)CC3)nc(C)n12 7.77%
CCOc1ccc(CNC(=O)c2ccc3oc(=O)n(Cc4ccccc4)c3c2)cc1 -17.4%
Cc1ccc(Cn2nnc3c(=O)[nH]c(C4CCN(C(=O)Cc5ccccc5F)CC4)nc32)cc1 -18.1%
Cc1ccc(CNC(=O)C2CCN(S(=O)(=O)N3CCCCC3)CC2)cc1 -18.3%
CCc1cccc(NS(=O)(=O)c2c(C)[nH]c(=O)[nH]c2=O)c1 -10.9%
CC1CCN(S(=O)(=O)c2ccc3c(c2)CCN3C(=O)Nc2ccccc2Br)CC1 3.18%
COc1ccc2c(c1)cc(CNc1ccc(OC)c(OC)c1)c(=O)n2CC(=O)Nc1ccccc1C -26.3%
Fc1ccc(N2CCN(c3nc4ccccc4c4nc(-c5ccccc5)nn34)CC2)cc1 -7.78%
COc1ccc(OCC(=O)Nc2ccc(-c3nc4cc(C)cc(C)c4o3)cc2)cc1 28.4%
COc1ccc(CC(=O)Nc2nc3c(s2)CC(C)CC3)cc1 (centres undefined) 27.1%
Cc1ccc(NC(=O)C2CCCN(S(=O)(=O)c3ccc4[nH]c(=O)ccc4c3)C2)cc1Cl (centres undefined) -12.8%
COc1ccc2c(c1)c1c(c(=O)n(CCc3ccccc3)c(=O)n1Cc1cccc(Cl)c1)n2C -6.97%
O=C(NCc1cccc(Cl)c1)c1c2c(nc3ccccc13)C(=O)N(C1CCCCC1)C2 -10.6%
CC(=O)Nc1cccc(NC(=O)c2cc3c(=O)n4cccc(C)c4nc3n2C)c1 8.05%
CCCn1cc(S(=O)(=O)c2ccc(C)cc2)c(=O)c2cc(F)c(N3CCCC3)cc21 2.84%
COc1cc(NC(=O)c2ccc(C)c(Cl)c2)ccc1NC(=O)c1cc2ccccc2o1 -10.1% [at 11.5 µM]
Cc1c(C(=O)NCc2ccc(Cl)cc2)oc2ccc3c(c12)C(=O)CC(C)(C)O3 13.3%
